Laboratory results as given in article PMC4336329 (PLoS ONE, 2015).
Hit rate of the full screen: of about 310,000 compounds, about 2,200 (0.71%) showed an effect of 50% or more. Effects have a minus sign here. This is one part of the list.

Target: human ether-à-go-go-related gene (hERG) potassium channel (human, UniProt Q12809)
Test: primary screen, population patch clamp on CHO cells stably expressing hERG

Sequence of human ether-à-go-go-related gene (hERG) potassium channel (Q12809 whole entry, looked up): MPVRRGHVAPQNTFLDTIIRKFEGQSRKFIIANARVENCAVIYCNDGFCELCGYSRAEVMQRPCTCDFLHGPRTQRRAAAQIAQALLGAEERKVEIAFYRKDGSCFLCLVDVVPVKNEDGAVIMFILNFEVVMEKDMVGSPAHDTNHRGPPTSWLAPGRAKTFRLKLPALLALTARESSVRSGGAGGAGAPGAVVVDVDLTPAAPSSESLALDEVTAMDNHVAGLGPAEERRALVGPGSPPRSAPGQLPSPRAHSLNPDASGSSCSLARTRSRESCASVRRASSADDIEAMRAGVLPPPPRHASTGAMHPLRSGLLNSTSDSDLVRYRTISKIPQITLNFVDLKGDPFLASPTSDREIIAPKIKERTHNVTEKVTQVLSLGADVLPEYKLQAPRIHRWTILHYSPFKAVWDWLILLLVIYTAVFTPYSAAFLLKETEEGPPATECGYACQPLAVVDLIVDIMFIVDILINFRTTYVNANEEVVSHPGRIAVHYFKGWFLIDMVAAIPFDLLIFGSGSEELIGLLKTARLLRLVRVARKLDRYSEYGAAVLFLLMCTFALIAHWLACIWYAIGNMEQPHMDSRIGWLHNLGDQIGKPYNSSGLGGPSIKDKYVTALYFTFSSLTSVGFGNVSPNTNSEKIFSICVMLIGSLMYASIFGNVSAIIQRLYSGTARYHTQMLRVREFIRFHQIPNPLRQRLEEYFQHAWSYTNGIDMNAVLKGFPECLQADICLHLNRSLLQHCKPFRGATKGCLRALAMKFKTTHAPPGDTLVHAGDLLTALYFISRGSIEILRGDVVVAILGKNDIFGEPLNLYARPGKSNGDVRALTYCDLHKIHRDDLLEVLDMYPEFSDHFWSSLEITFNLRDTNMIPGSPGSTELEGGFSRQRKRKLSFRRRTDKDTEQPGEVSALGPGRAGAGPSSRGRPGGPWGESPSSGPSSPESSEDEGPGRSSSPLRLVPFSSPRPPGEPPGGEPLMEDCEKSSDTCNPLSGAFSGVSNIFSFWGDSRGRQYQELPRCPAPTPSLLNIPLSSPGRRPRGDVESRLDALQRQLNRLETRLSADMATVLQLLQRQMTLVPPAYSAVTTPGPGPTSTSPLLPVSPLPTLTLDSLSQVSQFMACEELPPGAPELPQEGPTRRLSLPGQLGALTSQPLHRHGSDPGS

Compared with `c1ccc(Cn2ncc3c(N4CCOCC4)ncnc32)cc1`, `O=C1C(=O)N(CCN2CCOCC2)C(c2ccccn2)/C1=C(/O)c1ccccc1` (stereo not drawn) is higher in “hERG current change (%, negative = inhibition) at 1uM” value: -2.09% for the first, 5.14% for the second.

Going from `N#Cc1ccc(C23CC4(C2)[C@H](CN(P(=O)(c2ccccc2)c2ccccc2)[C@@H]4c2ccccc2)C3c2ccc(Cl)nc2)cc1` (stereo partly drawn) to `O=P1(NCCCn2cc[n+](Cc3nc4ccccc4[nH]3)c2)C=C(c2ccccc2)OC(c2ccccc2)=C1.[Cl-]`, the “hERG current change (%, negative = inhibition) at 1uM” value falls from 8.64% to -17.6%.

First: CCOc1ccc(C(=O)Nc2cccc(-c3ccc(N4CCOCC4)nn3)c2)cc1OCC
Second: COc1ccc(C(=O)Nc2ccc(-c3ccc(C)o3)cc2)cc1S(=O)(=O)N1CCOCC1
The “hERG current change (%, negative = inhibition) at 1uM” value of the first is higher: 15.3% for the first, 12.2% for the second.

First: CCNC(=O)CN(c1ccc(OC)c(OC)c1)S(=O)(=O)c1ccccc1
Second: COc1cccc(CNC(=O)CCS(=O)(=O)c2ccccc2Cl)c1
The “hERG current change (%, negative = inhibition) at 1uM” value of the first is lower: 5.2% for the first, 10.1% for the second.

First: O=S(=O)(NCCNc1nccc(C(F)(F)F)n1)c1ccccc1
Second: NC(=O)COc1ccc(/C=N/NS(=O)(=O)c2ccccc2)cc1
The “hERG current change (%, negative = inhibition) at 1uM” value of the first is lower: 9.51% for the first, 10.3% for the second.

Compared with `COc1ccc(N2CCN(C(=O)c3ccccc3NC(=O)c3ccccc3)CC2)cc1`, `COc1ccccc1N1CCN(S(=O)(=O)c2ccc3nc(-c4ccccc4)[nH]c3c2)CC1` is lower in “hERG current change (%, negative = inhibition) at 1uM” value: 3% for the first, -2.51% for the second.

Compared with `O=C(CSc1nc(-c2ccccc2)c(-c2ccccc2)o1)Nc1nncs1`, `c1ccc(-c2nnc3sc(-c4cc5ccccc5o4)nn23)cc1` is higher in “hERG current change (%, negative = inhibition) at 1uM” value: 10.3% for the first, 14.4% for the second.

Going from `COc1cccc(OCC(=O)N(Cc2nc(-c3ccc(Cl)cc3)no2)C(C)C)c1` to `Cc1ccccc1-c1nc(Cc2ccc(Cl)cc2)no1`, the “hERG current change (%, negative = inhibition) at 1uM” value rises from 5.01% to 12.7%.

Going from `CCCCC(=O)Nc1ccc(C(=O)NNC(=O)c2ccco2)cc1` to `O=C(Nc1ccc(C(=O)O)cc1)/C(=C\c1ccc2c(c1)OCO2)NC(=O)c1ccco1`, the “hERG current change (%, negative = inhibition) at 1uM” value rises from 14.5% to 19.4%.

First: CN(C)S(=O)(=O)c1ccc(Cl)c(NC(=O)COC(=O)CN2C(=O)NC(C)(C)C2=O)c1
Second: CCOC(=O)c1[nH]c2ccccc2c1NC(=O)c1ccc(S(=O)(=O)N2CCOCC2)cc1
The “hERG current change (%, negative = inhibition) at 1uM” value of the first is lower: 3.03% for the first, 7.67% for the second.

First: O=C(NCc1ccccc1C(F)(F)F)C1CC(c2cc(C(F)(F)F)cc(C(F)(F)F)c2)=NO1 (stereo not drawn)
Second: O=C(NC(=S)Nc1ccccc1C(F)(F)F)c1ccccc1F
The “hERG current change (%, negative = inhibition) at 1uM” value of the first is lower: 9.2% for the first, 21.4% for the second.

First: CCCOc1cc(N)ccc1C(=O)OCCN(CC)CC.Cl
Second: COc1ccc(C(C(=O)OCCN(C)C)c2ccccc2)cc1.Cl (stereo not drawn)
The “hERG current change (%, negative = inhibition) at 1uM” value of the first is lower: -6.98% for the first, -2.84% for the second.

First: Cc1ccnc(NC(=O)c2cccc(NC(=O)CC3SC(N4CCCCC4)=NC3=O)c2)c1 (stereo not drawn)
Second: CC(=O)N1CCN(S(=O)(=O)c2cccc(C(=O)Nc3ccc(F)c(F)c3)c2)CC1
The “hERG current change (%, negative = inhibition) at 1uM” value of the first is higher: -0.0957% for the first, -38.1% for the second.

First: CCOC(=O)C(NC(=O)CC)(Nc1cc(C)on1)C(F)(F)F (stereo not drawn)
Second: Cc1cc(NC(=O)CS(=O)(=O)c2c[nH]c3ccccc23)no1
The “hERG current change (%, negative = inhibition) at 1uM” value of the first is lower: -2.69% for the first, 10.9% for the second.

Going from `CCCNC(=O)c1nc(C)n(-c2cc(Cl)ccc2Cl)n1` to `COc1cc(C)c(NC(=S)Nc2ccc(Cl)c(Cl)c2)cc1OC`, the “hERG current change (%, negative = inhibition) at 1uM” value falls from 18.1% to 15.7%.

Going from `CC1CCC(NC(=O)COC(=O)c2cccnc2Cl)CC1` (stereo not drawn) to `CCNc1ccc(C(=O)OCC(=O)N2CCCC2)cc1[N+](=O)[O-]`, the “hERG current change (%, negative = inhibition) at 1uM” value rises from -5.81% to 5.74%.

Going from `COCC1CCCCN1Cc1cn(-c2ccccc2)nc1-c1ccc2c(c1)OCO2` (stereo not drawn) to `O=C(CN1C(=O)COc2ccccc21)N1CCN(c2ccccc2F)CC1`, the “hERG current change (%, negative = inhibition) at 1uM” value rises from 6.58% to 8.93%.

Compared with `O=S(=O)(Cc1ccc(Cl)cc1)NCC1CCCO1` (stereo not drawn), `Clc1ccc(N=NN2CCOCC2)cc1` is higher in “hERG current change (%, negative = inhibition) at 1uM” value: 2.48% for the first, 11.4% for the second.

Compared with `NS(=O)(=O)c1ccc(NS(=O)(=O)c2cccs2)cc1`, `CCC(=O)Nc1ccc(S(=O)(=O)Nc2nccs2)cc1` is higher in “hERG current change (%, negative = inhibition) at 1uM” value: 20.3% for the first, 21.5% for the second.

Going from `Fc1ccc2[nH]c3c(N4CCN(C5CCCCC5)CC4)ncnc3c2c1` to `Nn1c(SCC(=O)NCCc2ccc(F)cc2)nnc1C1CCCCC1`, the “hERG current change (%, negative = inhibition) at 1uM” value rises from -3.08% to 8.13%.

Compared with `CCN1CCN(C(=O)c2ccc(C(F)(F)F)cc2)CC1`, `O=C(Nc1ccc(C(=O)N2CCOCC2)cc1)c1ccc([N+](=O)[O-])cc1` is lower in “hERG current change (%, negative = inhibition) at 1uM” value: 12.8% for the first, 5.77% for the second.

First: CCOc1ccc(CNC(=O)c2ccc(Sc3ccc(Cl)cc3)c(NC(C)=O)c2)cc1
Second: CC(=O)Nc1ccc(C(=O)OCc2ccc(F)cc2)cc1
The “hERG current change (%, negative = inhibition) at 1uM” value of the first is higher: 12.8% for the first, 8.07% for the second.

Going from `O=C(O)C(=O)O.c1ccc(CCNC2CCCCCC2)cc1` to `COCC(C)NCc1ccccc1C.O=C(O)C(=O)O` (stereo not drawn), the “hERG current change (%, negative = inhibition) at 1uM” value rises from 1.13% to 3.63%.

First: O=C(NNC(=O)c1cc(-c2ccncc2)nc2ccccc12)c1cccc(Cl)c1
Second: Cc1ccc(-c2cc(C(=O)N/N=C/c3cccnc3)c3ccccc3n2)cc1C
The “hERG current change (%, negative = inhibition) at 1uM” value of the first is lower: 1.53% for the first, 18.4% for the second.

Going from `CCOC(=O)C1CCN(c2c(NCCCN(C)C3CCCCC3)c(=O)c2=O)CC1` to `COc1ccc(C)cc1S(=O)(=O)N1CCCC(C(=O)N2CCOCC2)C1` (stereo not drawn), the “hERG current change (%, negative = inhibition) at 1uM” value rises from 5.2% to 28.6%.

Going from `O=S(=O)(c1ccccc1)c1nc(-c2ccco2)oc1NCc1ccccc1` to `O=c1cc(NCc2ccco2)c2ccccc2o1`, the “hERG current change (%, negative = inhibition) at 1uM” value rises from 1.07% to 11.6%.

First: CC(=O)N(CCCc1ccc(C(C)(C)C)cc1)CCCN(C)C
Second: COc1cc2cc(CN(CCc3ccccc3C)C(=S)NCCCN(C)C)c(=O)[nH]c2cc1OC
The “hERG current change (%, negative = inhibition) at 1uM” value of the first is lower: -9% for the first, 3.04% for the second.

Compared with `COc1ccc2cc(S(=O)(=O)n3cnc(C)c3)ccc2c1`, `COc1ccc(C(=O)COC(=O)c2ccn(C)n2)cc1` is lower in “hERG current change (%, negative = inhibition) at 1uM” value: 17.1% for the first, 9.85% for the second.

Compared with `COCCn1cnnc1SCC(=O)Nc1cc(OC)c([N+](=O)[O-])cc1C`, `COc1ccc(NC(=O)c2nnn(CC(=O)Nc3ccccc3OC)c2N)c(OC)c1` is higher in “hERG current change (%, negative = inhibition) at 1uM” value: 7.09% for the first, 11.2% for the second.

Going from `C(=N\n1cnnc1)/c1cccc2ccccc12` to `Brc1ccccc1-c1nnc2sc(Cc3ccccc3)nn12`, the “hERG current change (%, negative = inhibition) at 1uM” value falls from 14.1% to 4.98%.

Compared with `O=C(CN1CCN(c2ccc(O)cc2)CC1)NCC(=O)Nc1ccc(F)c(F)c1F`, `O=[N+]([O-])c1ccc(OCC(O)CN2CCN(c3ccccc3F)CC2)cc1` (stereo not drawn) is lower in “hERG current change (%, negative = inhibition) at 1uM” value: -0.0036% for the first, -77.6% for the second.

Going from `O=S(=O)(Nc1nc2c(s1)CCCC2)c1ccc(Br)cc1` to `CNC(=O)c1cc(S(=O)(=O)Nc2ccc3c(c2)OCCO3)ccc1C`, the “hERG current change (%, negative = inhibition) at 1uM” value rises from 6.62% to 12.2%.

First: CCCCn1c(N)c(N(CC(C)C)C(=O)C2=NN(c3ccccc3)C(=O)CC2)c(=O)[nH]c1=O
Second: CCN(CC(=O)Nc1c(F)cccc1F)C(=O)C1CC(=O)N(CCc2ccccc2)C1 (stereo not drawn)
The “hERG current change (%, negative = inhibition) at 1uM” value of the first is higher: 8.93% for the first, 0.0762% for the second.

Compared with `Cc1nn(CC(=O)NCCCN2CC(C)CC(C)C2)c(=O)c2cccn12` (stereo not drawn), `COc1ccc(-c2cc(CNC(=O)CN3CCN(C)CC3)on2)cc1` is lower in “hERG current change (%, negative = inhibition) at 1uM” value: 22.4% for the first, 9.87% for the second.

Going from `Cc1cc2nc(CCN3CCOCC3)n(S(=O)(=O)c3ccc(C(C)(C)C)cc3)c2cc1C` to `Cc1ccc2oc(=O)n(CCCOc3ccccc3C)c2c1`, the “hERG current change (%, negative = inhibition) at 1uM” value rises from 5.15% to 12.5%.

First: O=C1CC2(CCN(C(=O)c3ccc([N+](=O)[O-])cc3)CC2)Oc2ccccc21
Second: O=C(Nc1ccc(F)cc1)N1CCc2ccccc2C1
The “hERG current change (%, negative = inhibition) at 1uM” value of the first is lower: -87.5% for the first, 10.6% for the second.

Going from `CC(=O)NC(N1CCCCC1)C(F)(F)C(F)(F)C(F)(F)C(F)F` (stereo not drawn) to `Cn1c2c(c(=O)n(C)c1=O)C(C(F)(F)F)(C(F)(F)F)N=C(C1CCCCC1)N2`, the “hERG current change (%, negative = inhibition) at 1uM” value rises from 5.03% to 11.9%.

Going from `COc1cc(-c2nc3ccccc3nc2-c2ccc(O)c(OC)c2)ccc1O` to `COc1ccc(CNC(=O)CCc2c(C)nc3cc(-c4ccccc4OC)nn3c2C)cc1`, the “hERG current change (%, negative = inhibition) at 1uM” value falls from 16.3% to -0.803%.

First: CSC1=C(C#N)C(CC(C)C)C(C(C)=O)=C(C)N1 (stereo not drawn)
Second: CC(=O)c1cc(NC(=O)c2ccccc2)c(=O)oc1C
The “hERG current change (%, negative = inhibition) at 1uM” value of the first is lower: 6.89% for the first, 13.8% for the second.

First: Cc1cc(C)c(NC(N)=S)c(C)c1
Second: CCCCSCCCNC(=S)Nc1ccccc1C
The “hERG current change (%, negative = inhibition) at 1uM” value of the first is higher: 12.3% for the first, 6.85% for the second.

Compared with `O=C(N/N=C/c1cccnc1)c1ccc(NC(=O)c2cccc(Cl)c2)cc1`, `CN(CC(=O)Nc1cccc(F)c1)C(=O)c1cccnc1Sc1ccccc1` is lower in “hERG current change (%, negative = inhibition) at 1uM” value: 17.5% for the first, -5.63% for the second.

Compared with `Cl.c1ccc2c(c1)N1CCN=C1N2CCN1CCCCC1`, `CC1(C)CC(=O)C2=C(C1)N=C1c3ccccc3C(=O)C1C2c1ccc(Cl)cc1` (stereo not drawn) is higher in “hERG current change (%, negative = inhibition) at 1uM” value: 3.76% for the first, 14.3% for the second.

Going from `CCC(CCC(=O)Nc1ccc(S(N)(=O)=O)cc1)C(=O)O` (stereo not drawn) to `O=C(Nc1ccc(N2C(=O)C3C4C=CC(C4)C3C2=O)cc1)Nc1nnc(C(F)(F)F)s1` (stereo not drawn), the “hERG current change (%, negative = inhibition) at 1uM” value rises from 2.72% to 10.2%.

In the case of `COc1cc(NC(=O)c2ccccc2)c(OC)cc1NC(C)=O`, the “hERG current change (%, negative = inhibition) at 1uM” value was 0.426%.
